These results are taken from patent publication US20030224453A1, “Structural models for cytoplasmic domains of transmembrane receptors” (priority 1998, published 2003).

For one experiment, the target named is T1, filamin (ABP-280) (Homo sapiens, UniProt P21333).
T1 construct: Human uterus filamin (ABP-280) was prepared as a 1.5 mg/ml solution; from tissue; host or cells: human uterus
As to the kind of experiment: Binding of resin-bound cytoplasmic domain model proteins to purified filamin. The following applies: result in words. The procedure: (§1) Purified recombinant cytoplasmic domain proteins (500 μg) were dissolved in a mixture of 5 ml 20 mM Pipes, 50 mM NaCl, pH 6.8 and 1 ml 0.1 M sodium acetate, pH 3.5 and bound overnight to 80 μl of Ni^2+ saturated His-bind resin (Novagen). […] Resins were washed twice with 20 mM Pipes, 50 mM NaCl, pH 6.8, and stored at 4° C. with 0.1% sodium azide as suspensions with one volume of this buffer. Fifty microliters of such a suspension were added to 4.5 ml of cell lysates which had been diluted tenfold with buffer A containing 0.05% TRITON X-100, 3 mM MgCl2 and protease-inhibitors. After incubation overnight at 4° C., resins were washed five times with this buffer and finally heated in 50 μl of reducing sample buffer for SDS PAGE. Samples were separated on 4-20% SDS polyacrylamide gels (NOVEX) and either stained with Coomassie or transferred to Immobilon P membranes (Amersham Corp., Arlington Hts, Ill.). Membranes were blocked with TBS, 5% nonfat-mild powder and stained with streptavidin-peroxidase (VECTASTAIN) or specific antibodies. Bound peroxidase was detected with an enhanced chemiluminescence kit (Amersham).
Human uterus filamin (ABP-280) was prepared as a 1.5 mg/ml solution in 0.6 M KCl, 0.5 mM ATP, 0.5 mM DTT, 10 mM imidazole, pH 7.5. […]

The next experiment concerns the target talin (Homo sapiens, UniProt Q9Y490). The experiment is described as follows: Binding of resin-bound cytoplasmic domain model proteins to purified talin. Further details: Talin was purified from human platelets in accordance with well known procedures; from tissue; host or cells: human platelets. The following applies: result in words. Here is the method:
as §1
Talin was purified from human platelets in accordance with well known procedures with an additional purification step using chromatography on phosphocellulose and stored at 1 mg/ml in 10 mM NaCl, 50% glycerol. […]

T1 sequence (P21333 whole entry): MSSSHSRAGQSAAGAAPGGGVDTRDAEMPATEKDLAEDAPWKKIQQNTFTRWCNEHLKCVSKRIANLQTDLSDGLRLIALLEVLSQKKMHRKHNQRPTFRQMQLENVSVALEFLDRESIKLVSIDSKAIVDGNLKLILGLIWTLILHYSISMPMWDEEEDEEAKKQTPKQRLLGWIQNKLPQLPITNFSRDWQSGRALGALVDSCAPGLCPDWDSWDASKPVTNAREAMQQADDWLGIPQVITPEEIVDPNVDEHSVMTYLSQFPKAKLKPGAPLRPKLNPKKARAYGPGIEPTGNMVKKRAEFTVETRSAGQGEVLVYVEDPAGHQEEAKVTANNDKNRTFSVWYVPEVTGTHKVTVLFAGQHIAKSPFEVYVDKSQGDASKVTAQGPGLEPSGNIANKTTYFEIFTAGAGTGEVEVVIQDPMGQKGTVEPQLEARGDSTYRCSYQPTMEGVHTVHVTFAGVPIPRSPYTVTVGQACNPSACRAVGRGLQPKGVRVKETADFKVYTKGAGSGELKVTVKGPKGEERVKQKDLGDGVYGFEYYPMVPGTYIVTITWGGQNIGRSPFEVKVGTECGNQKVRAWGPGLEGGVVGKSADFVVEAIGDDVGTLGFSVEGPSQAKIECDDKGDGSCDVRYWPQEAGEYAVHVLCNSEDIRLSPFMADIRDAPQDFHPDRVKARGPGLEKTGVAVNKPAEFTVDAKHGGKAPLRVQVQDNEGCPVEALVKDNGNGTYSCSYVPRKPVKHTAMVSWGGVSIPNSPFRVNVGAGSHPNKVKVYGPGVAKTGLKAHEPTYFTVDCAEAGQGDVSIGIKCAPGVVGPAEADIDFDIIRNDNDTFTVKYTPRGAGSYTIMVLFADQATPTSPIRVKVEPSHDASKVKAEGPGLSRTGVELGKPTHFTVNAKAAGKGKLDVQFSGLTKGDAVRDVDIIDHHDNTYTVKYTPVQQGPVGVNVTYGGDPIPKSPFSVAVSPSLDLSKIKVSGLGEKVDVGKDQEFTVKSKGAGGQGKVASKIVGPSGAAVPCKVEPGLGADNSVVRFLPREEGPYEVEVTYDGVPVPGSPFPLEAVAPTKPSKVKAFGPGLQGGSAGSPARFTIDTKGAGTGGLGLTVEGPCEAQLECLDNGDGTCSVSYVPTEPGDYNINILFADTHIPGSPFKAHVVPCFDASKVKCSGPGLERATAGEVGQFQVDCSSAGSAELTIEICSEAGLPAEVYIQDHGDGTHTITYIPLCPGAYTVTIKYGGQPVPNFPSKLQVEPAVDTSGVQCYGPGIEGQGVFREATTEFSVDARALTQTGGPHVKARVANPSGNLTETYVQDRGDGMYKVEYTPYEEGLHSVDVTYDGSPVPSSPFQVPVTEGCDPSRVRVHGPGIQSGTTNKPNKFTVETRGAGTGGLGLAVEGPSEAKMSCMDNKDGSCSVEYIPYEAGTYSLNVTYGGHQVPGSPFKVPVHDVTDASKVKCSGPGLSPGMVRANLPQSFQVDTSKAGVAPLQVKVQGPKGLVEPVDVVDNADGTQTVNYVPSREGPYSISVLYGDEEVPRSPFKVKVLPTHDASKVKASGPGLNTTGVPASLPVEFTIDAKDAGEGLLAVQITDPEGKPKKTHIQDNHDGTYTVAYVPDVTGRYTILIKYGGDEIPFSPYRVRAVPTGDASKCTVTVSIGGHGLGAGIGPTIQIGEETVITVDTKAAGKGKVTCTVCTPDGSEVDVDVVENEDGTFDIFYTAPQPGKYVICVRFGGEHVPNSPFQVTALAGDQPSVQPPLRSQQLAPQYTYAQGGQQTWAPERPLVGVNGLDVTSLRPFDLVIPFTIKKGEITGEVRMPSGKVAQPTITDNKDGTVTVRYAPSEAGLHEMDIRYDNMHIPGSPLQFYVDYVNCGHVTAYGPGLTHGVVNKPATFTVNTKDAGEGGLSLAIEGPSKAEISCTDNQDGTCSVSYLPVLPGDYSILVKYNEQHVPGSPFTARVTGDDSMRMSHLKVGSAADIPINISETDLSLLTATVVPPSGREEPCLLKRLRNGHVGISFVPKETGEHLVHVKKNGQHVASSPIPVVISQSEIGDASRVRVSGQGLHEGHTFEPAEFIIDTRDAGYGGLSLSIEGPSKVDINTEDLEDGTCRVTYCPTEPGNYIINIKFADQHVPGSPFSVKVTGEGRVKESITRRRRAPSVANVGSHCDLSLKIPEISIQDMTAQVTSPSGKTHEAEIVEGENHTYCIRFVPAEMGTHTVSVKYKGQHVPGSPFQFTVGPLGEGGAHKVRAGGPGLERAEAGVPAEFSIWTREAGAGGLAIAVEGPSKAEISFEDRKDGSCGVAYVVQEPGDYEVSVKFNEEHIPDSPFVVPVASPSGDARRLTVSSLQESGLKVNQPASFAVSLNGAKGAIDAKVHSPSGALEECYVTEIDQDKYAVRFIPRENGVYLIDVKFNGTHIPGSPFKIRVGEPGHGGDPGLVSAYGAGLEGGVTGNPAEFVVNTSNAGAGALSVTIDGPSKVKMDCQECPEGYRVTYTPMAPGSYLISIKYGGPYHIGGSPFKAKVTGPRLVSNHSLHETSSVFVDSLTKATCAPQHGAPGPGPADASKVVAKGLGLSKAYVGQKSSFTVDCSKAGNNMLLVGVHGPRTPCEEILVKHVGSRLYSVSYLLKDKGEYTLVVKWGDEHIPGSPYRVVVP
talin, sequence (Q9Y490 whole entry, the tested form may be a part): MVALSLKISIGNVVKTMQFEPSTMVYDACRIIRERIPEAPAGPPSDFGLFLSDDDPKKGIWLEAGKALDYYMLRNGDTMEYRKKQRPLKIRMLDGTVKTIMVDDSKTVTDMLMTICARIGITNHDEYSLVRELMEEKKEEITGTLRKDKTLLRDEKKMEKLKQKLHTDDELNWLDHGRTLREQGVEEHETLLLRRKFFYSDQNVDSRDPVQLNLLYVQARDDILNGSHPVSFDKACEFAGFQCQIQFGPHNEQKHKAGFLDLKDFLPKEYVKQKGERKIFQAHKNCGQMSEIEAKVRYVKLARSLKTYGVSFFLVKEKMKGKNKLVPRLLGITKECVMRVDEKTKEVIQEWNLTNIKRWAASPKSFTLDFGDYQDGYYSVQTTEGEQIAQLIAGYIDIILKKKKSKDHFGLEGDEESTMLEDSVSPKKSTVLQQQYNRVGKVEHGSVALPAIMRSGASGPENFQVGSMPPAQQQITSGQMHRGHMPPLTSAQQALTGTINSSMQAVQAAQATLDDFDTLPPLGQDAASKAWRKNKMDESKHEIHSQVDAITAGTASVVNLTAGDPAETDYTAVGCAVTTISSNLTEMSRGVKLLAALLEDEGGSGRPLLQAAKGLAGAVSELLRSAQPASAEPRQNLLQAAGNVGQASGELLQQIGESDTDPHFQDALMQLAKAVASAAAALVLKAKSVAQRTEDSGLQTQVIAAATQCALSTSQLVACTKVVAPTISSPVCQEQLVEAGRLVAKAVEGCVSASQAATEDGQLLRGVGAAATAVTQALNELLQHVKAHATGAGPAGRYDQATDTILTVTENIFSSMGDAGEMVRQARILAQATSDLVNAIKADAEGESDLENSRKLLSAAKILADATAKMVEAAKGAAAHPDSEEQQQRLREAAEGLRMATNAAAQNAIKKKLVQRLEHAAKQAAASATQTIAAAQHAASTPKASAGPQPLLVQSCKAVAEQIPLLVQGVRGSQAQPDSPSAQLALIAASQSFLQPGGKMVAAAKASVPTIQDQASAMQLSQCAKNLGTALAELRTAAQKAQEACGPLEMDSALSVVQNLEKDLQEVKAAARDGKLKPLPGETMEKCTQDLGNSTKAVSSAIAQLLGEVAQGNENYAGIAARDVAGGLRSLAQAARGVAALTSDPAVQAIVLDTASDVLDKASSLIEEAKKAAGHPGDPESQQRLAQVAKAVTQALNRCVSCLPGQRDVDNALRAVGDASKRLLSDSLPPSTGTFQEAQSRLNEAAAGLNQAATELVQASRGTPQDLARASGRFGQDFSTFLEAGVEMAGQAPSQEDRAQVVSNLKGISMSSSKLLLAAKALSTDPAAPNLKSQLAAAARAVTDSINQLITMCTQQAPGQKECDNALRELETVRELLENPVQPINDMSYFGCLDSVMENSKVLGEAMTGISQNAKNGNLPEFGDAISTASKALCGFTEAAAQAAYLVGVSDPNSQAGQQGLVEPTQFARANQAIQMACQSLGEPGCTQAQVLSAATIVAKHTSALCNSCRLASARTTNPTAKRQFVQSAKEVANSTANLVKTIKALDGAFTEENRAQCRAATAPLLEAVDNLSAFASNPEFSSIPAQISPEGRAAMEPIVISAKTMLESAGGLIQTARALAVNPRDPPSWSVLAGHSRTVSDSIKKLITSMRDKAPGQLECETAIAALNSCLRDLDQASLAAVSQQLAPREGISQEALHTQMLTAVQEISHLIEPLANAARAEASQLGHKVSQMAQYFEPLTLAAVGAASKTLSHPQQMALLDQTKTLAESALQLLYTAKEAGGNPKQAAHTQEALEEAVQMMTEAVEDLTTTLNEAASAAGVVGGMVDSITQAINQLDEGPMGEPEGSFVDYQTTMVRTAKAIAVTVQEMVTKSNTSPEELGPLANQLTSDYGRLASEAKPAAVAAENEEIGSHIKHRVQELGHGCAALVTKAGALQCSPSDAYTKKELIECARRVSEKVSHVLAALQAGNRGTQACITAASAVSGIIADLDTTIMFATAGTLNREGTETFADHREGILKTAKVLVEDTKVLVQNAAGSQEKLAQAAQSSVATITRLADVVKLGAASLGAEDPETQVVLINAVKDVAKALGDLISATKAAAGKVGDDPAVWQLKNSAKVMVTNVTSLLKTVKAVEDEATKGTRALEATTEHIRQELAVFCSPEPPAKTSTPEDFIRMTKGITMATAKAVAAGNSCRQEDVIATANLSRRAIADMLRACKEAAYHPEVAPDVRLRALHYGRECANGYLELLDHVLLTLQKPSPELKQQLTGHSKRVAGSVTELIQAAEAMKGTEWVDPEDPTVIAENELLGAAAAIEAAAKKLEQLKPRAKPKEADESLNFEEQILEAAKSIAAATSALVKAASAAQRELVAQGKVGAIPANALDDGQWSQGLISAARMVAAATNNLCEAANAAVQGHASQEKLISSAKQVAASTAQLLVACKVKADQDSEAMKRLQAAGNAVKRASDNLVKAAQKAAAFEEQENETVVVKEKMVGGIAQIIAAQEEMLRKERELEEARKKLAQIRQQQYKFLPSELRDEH

B1: G4-β1C: G4 model protein with β1C splice variant cytoplasmic domain (protein)
chain: GSSHHHHHHSSGLVPRGSHMKLEALEGRLDALEGKLEALEGKLDALEGGGGKLLMIIHDRREFAKFEKEKMNAKWDTSLSVAQPGVQWCDISSLQPLTSRFQQFSCLSLPSTWDYRVKILFIRVP
For the molecule B1, the “binding of purified filamin, comparison between constructs” value in the experiment with filamin (ABP-280) is “functionally reduced”. In the experiment with talin, the “binding of purified talin compared to G4-β1A” value is listed as “functionally reduced”.
